The source of these data is article PMC12136788.

Some of the results follow.

B1: chr15:41900134:41900198:-|3pUTR|ENSG00000103966|msi1_unk|FALSE|overlapping (ssRNA)
RNA: GGGAGUUCUACAGUCCGACGAUCAGGGCACCUGGAGGCAGCAAAGAUUAUCUUAUUUAUUUUAUUUUGUUUUCUGCUAUAUUUAGAGUGGCAAAAAAAUAGAGCAGAGGGUUUCUGCUGUCUCCAGACUGUCUACCAAAGAGACAACAGAGGAUUGAGCAUCA
B2: chr10:89738052:89738153:+|CDS|ENSG00000138182|unk|total|mutant (ssRNA)
RNA: GGGAGUUCUACAGUCCGACGAUCCUGGAACAACAAAUUGAAAAAUUGCAGGCAGAAGUAAAAGGCUAUAAGGAUGAAAACAACCGACUAAAGGAGAAGGAGCAUAAAAACCAAGAUGACCUACUAAAAGAAAAAGAAACUCUUCAACAGAGGAUUGAGCAUCA
B3: ENSG00000198589:be:win_6751|CDS|ENSG00000198589|bound_else_gene|NA|bound_elsewhere_windowed (ssRNA)
RNA: GGGAGUUCUACAGUCCGACGAUCUUGCCCACCAACUUCAGAGAUUUGUCCAAGCCAAUAGGAGCUCUGAACCCAAAAAGAGCAGCAUUCUUCGCUGAGCGUUAUGAAUCAUGGGAAGAUGAUCAAGUUCCAAAGUUUCACUAUCAACAGAGGAUUGAGCAUCA
B4: chr1:77728514:77728621:-|CDS|ENSG00000077254|unk|FALSE|unique (ssRNA)
RNA: GGGAGUUCUACAGUCCGACGAUCAGAUCCGCAAACCAUAACCACUGAGGAGACAAUGGAAGAAGACAAGAGCCAGUCGGAUGUAGAUUUUCAGUCUUGUGAAUCUUGUAGCAACAGUGAUAGAGCAGAAAAUGAAAAUGGCUCCAACAGAGGAUUGAGCAUCA
B5: chr3:7579146:7579247:+|CDS|ENSG00000196277|unk|FALSE|unique (ssRNA)
RNA: GGGAGUUCUACAGUCCGACGAUCGCCAGAGGGGUUCUCAAGUGUGACAUUACAGAUCUCCAAAUCAUUUGCUCCUUGGGAUAUAGCAUUCUUCUCAUGGUCACAUGUACUGUGUAUGCCAUCAAGACUCGGGGUGUACCCGAGCAACAGAGGAUUGAGCAUCA
B6: ENSG00000100242:stop:overlap|stop_codon|ENSG00000100242|stop_codon|NA|stop_codon (ssRNA)
RNA: GGGAGUUCUACAGUCCGACGAUCGGGGCCACCCCGAGUACACCUGCAUCUACCGCUUCAGAGUGCAUGGGGAGCCCGCCCACUAGCCCUGCUUACUGGUGCCUGCUGCCAGCCAUCUGGGAGUGGGUGAACAGCACCCCGCCGCAACAGAGGAUUGAGCAUCA
B7: chr12:25205306:25205412:-|3pUTR|ENSG00000133703|unk|FALSE|unique (ssRNA)
RNA: GGGAGUUCUACAGUCCGACGAUCGUCAUAUCAAACAUUAAAAAUGACCACUCUUUUAAUUGAAAUUAACUUUUAAAUGUUUAUAGGAGUAUGUGCUGUGAAGUGAUCUAAAAUUUGUAAUAUUUUUGUCAUGAACUGUACUACCAACAGAGGAUUGAGCAUCA
B8: chr18:55223968:55224079:-|3pUTR|ENSG00000196628|unk|total|mutant (ssRNA)
RNA: GGGAGUUCUACAGUCCGACGAUCUAUAAAGCUUUGUUUGUCCCGUGCUCUUUUGCUAUAAAACCGACUGCCGUACACCCCCGCCGGAAAAAAAAAAAACUAAAUUUAAAAAUAAAAAAUAUAUUUGGCUUAUUUUUCGCAGGACAACAGAGGAUUGAGCAUCA
B9: chr10:119072878:119073036:-|CDS|ENSG00000107581|unk|total|mutant (ssRNA)
RNA: GGGAGUUCUACAGUCCGACGAUCCUUUUAACUCCAUGGGUUAAAUUCCUGUGGGAGUCUUACAGGCAGUGUUUGGACCUUCUCCGAAACAAUUCCCGAGCCGAGCGCCUGUACCAUGAUAUUGCCCAGCAAGGUAAGAUGAGACAACAGAGGAUUGAGCAUCA
B10: chr17:48058596:48058697:+|CDS|ENSG00000082641|msi1|FALSE|unique (ssRNA)
RNA: GGGAGUUCUACAGUCCGACGAUCCAAUGGCACAGCCAAUGACACAGCAGGCCCAGAGCUGCCUGACCCUUUGGGGGGUCUGUUAGAUGAAGCUAUGUUGGAUGAGAUCAGCCUUAUGGACCUGGCCAUUGAAGAAGGCUUUAACAACAGAGGAUUGAGCAUCA
B11: chr9:21140631:21140982:-|three_prime_utr|ENSG00000177047|control|control|control (ssRNA)
RNA: GGGAGUUCUACAGUCCGACGAUCGUGACUCUGGUCAAUUCAAAAGACUCUUAUUUCGGCUUUAAUCACAGAAUUGACUGAAUUAGUUCUGCAAAUACUUUGUCGGUAUAUUAAGCCAGUAUAUGUUAAAAAGACUUAGGUUCACAACAGAGGAUUGAGCAUCA
B12: ENSG00000107863:be:win_951|CDS|ENSG00000107863|bound_else_gene|NA|bound_elsewhere_windowed (ssRNA)
RNA: GGGAGUUCUACAGUCCGACGAUCCACAUCACCACCAUUAUCAAUUCCCACCACUCAUCUAAUUCAUCAGCCUGCAGGCUCCAGAUCACUGGAACCUUCUGGAAUUUUACUUAAGUCUGGAAAUUACAGUGGACAUUCUGAUGGCAACAGAGGAUUGAGCAUCA
B13: chr15:77046177:77046188:-|3pUTR|ENSG00000140391|msi1_unk|FALSE|overlapping (ssRNA)
RNA: GGGAGUUCUACAGUCCGACGAUCUUAAUCAAAGUUGGCUUUAUAGGAGGAGUAUAAUGUAUGCACUACUGUUUUAAAAGAAUUAGUGUGAGUGUGUUUUUGUAUGAAUGAGCCCAUUCAUGGUAAGUCUUAAGCUUGUUGGAACAACAGAGGAUUGAGCAUCA
B14: chr11:1889147:1890584:-|CDS|ENSG00000283787|control|control|control (ssRNA)
RNA: GGGAGUUCUACAGUCCGACGAUCGCCACCCGGCUUCCAGGCCUCAGUGCCCAGAGAGGCUAGUGCCAGGGUUGUGGUGCCCAUAGCCCCGACCUGCCGCUCGCUGGAGUCCUCACCGCACAGCCUGGUCCCCAUGGGCCCUGGCAACAGAGGAUUGAGCAUCA
B15: chr2:19992051:19993110:-|three_prime_utr|ENSG00000132031|control|control|control (ssRNA)
RNA: GGGAGUUCUACAGUCCGACGAUCAGAAUCAGCAUGAUUCUUCCAAGGAAAUACAUAUGCAGAUACUUAUUAAGAGCAAACUUUAGUGUCUCUAAGUUAUGACUGUGAAAUGAUUGGUAGGAAAUAGAAUGAAAAGUUUAGUGUCAACAGAGGAUUGAGCAUCA
B16: chr3:142163631:142163732:-|3pUTR|ENSG00000175066|unk|total|mutant (ssRNA)
RNA: GGGAGUUCUACAGUCCGACGAUCCCCAAAGUGCUGGGAUUGCAGCCGUGAACCACUGCACCCAGCCAAUGGGUGUAAUUUCACCGGAAAUAAUUCUUUUUGUCAGAAUGUACUGAAUUGUAAUAUUAAUACCUGAAAAUUUGUCAACAGAGGAUUGAGCAUCA
B17: ENSG00000136631:stop:overlap|stop_codon|ENSG00000136631|stop_codon|NA|stop_codon (ssRNA)
RNA: GGGAGUUCUACAGUCCGACGAUCACAAAGGUGUUGGAGAGCAGCUUUGGGUUCUGUGCUGGUUGUUAGAACUCAUCUCCAGGUAGCCCACGGAUACGUGGUUGGCACAGACACAAGACUCCCAGAGUUGUCCUAACAAUAAGUCAACAGAGGAUUGAGCAUCA
B18: ENSG00000107863:be:win_4351|CDS|ENSG00000107863|bound_else_gene|NA|bound_elsewhere_windowed (ssRNA)
RNA: GGGAGUUCUACAGUCCGACGAUCCACAAUGAUACUAAAGAGGAGUCCAAAAAAGAAAGUGAGACACUGGGCAGAAAACAGAAGAUCAUCAUUGCCAAAGAAAACAGCACUAGGAAAGACCCCAGCACGACAAAAGAUGAAAAGCAACAGAGGAUUGAGCAUCA
B19: ENSG00000198589:be:win_1201|CDS|ENSG00000198589|bound_else_gene|NA|bound_elsewhere_windowed (ssRNA)
RNA: GGGAGUUCUACAGUCCGACGAUCGCUGAGCAUCACAAACUUUUAUUGUACGAUGGGAAACUCUCUAGUGCCAUUGCAUUCACGUACAAUCCACGGGCUACAGAUGCCCAGCUUUGUCUUGAAUCAUCUCCUAAGGACAACCCUCAACAGAGGAUUGAGCAUCA
B20: chr6:350928:351029:+|3pUTR|ENSG00000112679|unk|FALSE|unique (ssRNA)
RNA: GGGAGUUCUACAGUCCGACGAUCCCACAGAGUUUAGGCUGGUGCUGCCAAAAAGAAAAGCAACAUAGAGUUUAAGUAUCCAGUAGUGAUUUGUAAACUUGUUUUUCAUUUGAAGCUGAAUAUAUACGUAGUCAUGUUUAUGUUCAACAGAGGAUUGAGCAUCA
B21: chr14:92797766:92797867:+|CDS|ENSG00000066455|msi1|FALSE|unique (ssRNA)
RNA: GGGAGUUCUACAGUCCGACGAUCCAUUUUGUGCGAAGAAAAAAGUCAGAACCUGAUGAUGAGCUGCUGUUUGAUUUUCUUAAUAGUUCACAGAAGGAGCCUACCGGGAGGGUGGAAAUCAGAAAGGAAAAAGGCAAGACACCUCAACAGAGGAUUGAGCAUCA
B22: chr8:38210266:38210373:+|CDS|ENSG00000156735|unk|FALSE|unique (ssRNA)
RNA: GGGAGUUCUACAGUCCGACGAUCAAAAAUCAUACAUGUGCUGGAGAAGGUCCAGUAUCUUGAACAAGAAGUAGAAGAAUUUGUAGGAAAAAAGACAGACAAAGCAUACUGGCUUCUGGAAGAAAUGCUAACCAAGGAACUUUUCAACAGAGGAUUGAGCAUCA

The target of this test is T1, UNK ZnF1-6 (called full-length) (human, UniProt Q9C0B0 30-357).
T1 sequence: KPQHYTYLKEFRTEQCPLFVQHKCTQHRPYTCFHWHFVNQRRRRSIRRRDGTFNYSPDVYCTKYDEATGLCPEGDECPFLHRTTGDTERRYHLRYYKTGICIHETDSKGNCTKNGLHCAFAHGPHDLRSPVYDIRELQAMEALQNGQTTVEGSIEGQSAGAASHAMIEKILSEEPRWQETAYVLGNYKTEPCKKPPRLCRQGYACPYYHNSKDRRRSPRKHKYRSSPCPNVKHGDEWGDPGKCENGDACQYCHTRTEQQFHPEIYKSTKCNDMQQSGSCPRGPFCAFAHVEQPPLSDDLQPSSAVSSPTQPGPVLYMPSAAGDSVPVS
The test is described as follows: nsRBNS (natural sequence RNA bind-n-seq); RBNS binding buffer (assumed for nsRBNS): 25 mM Tris pH 7.5, 150 mM KCl, 3 mM MgCl2, 0.01% Triton X-100, 500 ug/ml BSA, 20 U/ml SUPERase-In, 4 C; UNK is unkempt and MSI1 is Musashi-1; names of the RNAs are library labels; protein concentration not given here; high values mean tight binding.
Regarding B1, the binding signal was 0.58 enrichment R. Take B2: the binding signal was 0.451 enrichment R. The value for B3 was 0.472 enrichment R; that for B4 was 0.733 enrichment R. B5 yielded a binding signal of 0.647 enrichment R. The value for B6 was 0.815 enrichment R.

As for B7, the binding signal was determined as 0.945 enrichment R. With B8, the binding signal was found to be 0.707 enrichment R. The value for B9 was 0.34 enrichment R; that for B10 was 0.652 enrichment R; that for B11 was 0.716 enrichment R. Under B12 stands 0.554 enrichment R; under B13, 0.512 enrichment R.

B14 gave a binding signal of 1.07 enrichment R.

B15 showed a binding signal of 1.58 enrichment R. The value for B16 was 0.381 enrichment R; that for B17 was 0.922 enrichment R; that for B18 was 0.687 enrichment R. The value for B19 was 0.458 enrichment R; that for B20 was 0.557 enrichment R; that for B21 was 0.931 enrichment R.

For the molecule B22, the binding signal was 0.552 enrichment R.
